In PubChem BioAssay AID1721 (National Center for Advancing Translational Sciences (NCATS), 2009):
Hit rate of the full screen: of about 290,000 compounds, about 1,100 (0.38%) were called active. The inconclusive results got no clear call from the source; some entries with a clear call stand among them for comparison. The call rests on the fitted dose curve; in most records, active means well fitted inhibition curve with a large enough effect; inconclusive means small, poorly fitted or top-dose-only effect, or another doubt; inactive means no such curve, though single readings can be large or run the other way. Potencies beside an inconclusive call are fits to weak or partial responses and may not hold up.
On the % scale 0 is the no-effect control and ±100 the full control effect; potency means the concentration at half of the fitted maximal effect; tags describe the fitted curve by direction and shape.

The compounds below were run against Pyruvate kinase (Leishmania mexicana) (UniProt Q27686) (assay: qHTS Assay for Inhibitors of Leishmania Mexicana Pyruvate Kinase (LmPK)). Settings: purified LmPK, Kinase-Glo ATP luminescence, 1 h; activity change, negative = inhibition: at 57.5 µM (top of the series) unless noted.
Sequence of UniProt Q27686 (Q27686 whole entry, looked up): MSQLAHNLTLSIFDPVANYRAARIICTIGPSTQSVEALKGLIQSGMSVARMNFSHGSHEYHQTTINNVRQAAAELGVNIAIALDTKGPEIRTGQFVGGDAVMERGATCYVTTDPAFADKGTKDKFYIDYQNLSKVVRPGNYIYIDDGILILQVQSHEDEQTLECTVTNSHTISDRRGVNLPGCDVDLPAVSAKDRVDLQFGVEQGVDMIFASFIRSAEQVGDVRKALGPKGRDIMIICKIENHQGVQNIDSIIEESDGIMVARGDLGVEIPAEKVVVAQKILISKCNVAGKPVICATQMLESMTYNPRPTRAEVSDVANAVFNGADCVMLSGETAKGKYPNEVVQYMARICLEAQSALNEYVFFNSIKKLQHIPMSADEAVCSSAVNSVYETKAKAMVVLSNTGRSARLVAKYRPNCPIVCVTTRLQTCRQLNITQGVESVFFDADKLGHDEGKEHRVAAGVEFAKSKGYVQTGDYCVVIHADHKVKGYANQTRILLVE
In short: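 0.1 nM LmPK, 0.5 mM PEP, 0.1 mM ADP; 50 mM imidazole pH 7.2, 7 mM MgCl2, 50 mM KCl; 1 h RT. Kinase-Glo luminescence readout, normalized to no-enzyme (full inhibition) and uninhibited wells.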
With `O=c1c2ccccc2cnn1Cc1n[nH]c(=S)n1C1CC2CCC1C2` (stereo unspecified) the Potency was inconclusive: 3.98 µM [falling, full curve]. For `Cc1nc(N=Nc2ccc(O)cc2)n[nH]1`, the Potency was active: 14.1 µM. With `N#Cc1ccc(C(=O)Nc2nnc(-c3ccccn3)o2)cc1` the Potency was inconclusive: 25.1 µM [falling, partial curve]. `O=C1N=C(N2CCOCC2)SC1=C1CCCCC1` was tested, and the Potency was inconclusive: 35.5 µM [falling, single point]. In the case of `Fc1ccc(-c2nc3ccncc3[nH]2)cc1`, the Potency is reported as inconclusive: 11.2 µM [falling, partial curve]. In the case of `CCCC(=O)Nc1ccc(NC(=O)c2ccccc2)nc1`, the Potency is reported as inconclusive: 28.2 µM [falling, single point]. For `Oc1ccccc1/C=N/Nc1nccnc1Cl`, the Potency was active: 15.8 µM. For `Cc1ccc(-n2nnc(-c3nccn3C)n2)cc1`, the Potency was active: 14.1 µM. For `CC1(C)Cc2ccccc2-c2n[nH]c(=S)n21`, the Potency was active: 7.08 µM. With `Clc1ccc(-c2cc(-c3ccccn3)on2)c(Cl)c1` the Potency was active: 15.8 µM. In the case of `CCCCCN1C=CC(=C2C(=O)c3ccccc3C2=O)C=C1`, the Potency is reported as inconclusive: 31.6 µM [falling, single point]. In the case of `CCn1c(-c2cccc(Br)c2)n[nH]c1=S`, the Potency is reported as inconclusive: 14.1 µM [falling, partial curve]. With `O=c1oc2ccccc2cc1-c1nc2ccccc2o1` the Potency was inconclusive: 12.6 µM [falling, partial curve]. For `COc1ccccc1C(O)Cc1nc2ccccc2n1C` (stereo unspecified), the “activity change, negative = inhibition” value was inactive: -4.08%. In the case of `CCN1CCCC1CN(Cc1cc2c(C)cc(C)cc2[nH]c1=O)C(=O)NC1CCCCC1` (stereo unspecified), the “activity change, negative = inhibition” value is reported as inactive: 2.61%. In the case of `O=C(Nc1ccccc1C(=O)N/N=C/c1ccco1)c1ccc(F)cc1`, the Potency is reported as active: 15.8 µM. `O=C(/C=C/c1ccco1)c1ccccc1O` was tested, and the Potency was inconclusive: 28.2 µM [falling, single point]. With `CC(CC(=O)Nc1nnc(C(C)(C)C)s1)c1ccccc1` (stereo unspecified) the “activity change, negative = inhibition” value was inactive: 9.18%. For `Cc1c(C(=O)O/N=C(\N)c2ccccn2)cccc1[N+](=O)[O-]`, the Potency was inconclusive: 8.91 µM [falling, partial curve]. `CSc1ncc(C(=O)Nc2ccccc2)cn1` was tested, and the “activity change, negative = inhibition” value was inactive: -3.59%. For `CC(=O)Nc1ccc2nc(-c3cccnc3)[nH]c2c1`, the “activity change, negative = inhibition” value was inactive: -2.9%. `S=c1[nH]nc(-c2ccc3ccccc3n2)n1-c1ccc2ncccc2c1` was tested, and the Potency was active: 14.1 µM. For `Oc1ccc(CNc2ccccc2)c2cccnc12`, the “activity change, negative = inhibition” value was inactive: 26.1%. `S=c1[nH]nc([C@@H]2C[C@H]2c2ccccc2)n1-c1ccccc1` was tested, and the Potency was inconclusive: 11.2 µM [falling, partial curve]. With `COc1ccc(C(=O)N/N=C/c2ccc(N3CCOCC3)o2)cc1OC` the Potency was inconclusive: 35.5 µM [falling, single point]. For `COCCn1c(C)cc(C(=O)COC(=O)c2n[nH]c3ccccc23)c1C`, the Potency was inconclusive: 28.2 µM [falling, single point]. `CC(=O)N(C1=C(Cl)C(=O)c2ccccc2C1=O)c1ccc(C(=O)O)cc1` was tested, and the Potency was active: 4.47 µM. For `Oc1ccc(-c2n[nH]c(=S)n2-c2ccc3c(c2)OCCO3)cc1`, the Potency was inconclusive: 2.51 µM [falling, full curve]. With `CCOC(=O)c1cnc2oc3ccccc3n2c1=O` the “activity change, negative = inhibition” value was inactive: -2.25%. `COc1ccc(/C=C/C(=O)c2cc3c(cc2N)OCO3)cc1` was tested, and the Potency was inconclusive: 25.1 µM [falling, single point]. For `O=C(O)c1cc(N=Nc2c(O)ccc3ccccc23)cc(C(=O)O)c1`, the Potency was inconclusive: 31.6 µM [falling, single point]. `O=C(Nc1ccc(Oc2ncnc3cc(Cl)ccc23)nc1)c1ccc(F)cc1` was tested, and the “activity change, negative = inhibition” value was inactive: 8.68%. For `Cc1nc2cc(-c3ccccc3)sc2c(=O)n1N`, the Potency was active: 2.24 µM. In the case of `O=c1c2ccccc2nc(-c2ccco2)n1Cc1ccccc1`, the Potency is reported as inconclusive: 25.1 µM [falling, partial curve]. `COc1ccc(/C=N/NC(=O)c2ccc[nH]2)cc1` was tested, and the Potency was inconclusive: 15.8 µM [falling, partial curve]. For `O=C1C(c2ccnc3ccccc23)=C(O)c2ccccc21`, the Potency was inconclusive: 14.1 µM [falling, partial curve]. For `Cc1nn2cc(-c3ccccc3)nc2s1`, the Potency was inconclusive: 14.1 µM [falling, partial curve]. With `COc1ccccc1CNC(=O)[C@H](NC(=O)C1CCN(C(=O)[C@@H](N)CCSC)CC1)C(C)C` the “activity change, negative = inhibition” value was inactive: 5.63%. In the case of `CCOc1ccc(/C=C/C2=NNC(=O)CC2)cc1`, the Potency is reported as inconclusive: 14.1 µM [falling, partial curve]. `Cc1ccc(/C=C2\C(=O)Nc3ccccc32)o1` was tested, and the “activity change, negative = inhibition” value was inactive: -16.8%. In the case of `COC(=O)c1nnn(CC(=O)Nc2cccc(OC)c2)c1C(=O)OC`, the “activity change, negative = inhibition” value is reported as inactive: 2.52%. For `CCN(CC)S(=O)(=O)c1cccc(-c2n[nH]c(=S)n2CC(C)C)c1`, the Potency was inconclusive: 12.6 µM [falling, partial curve]. With `CCn1c(C)nc2cc(-c3nc4n(n3)Cc3ccccc3-4)ccc21` the Potency was active: 15.8 µM. `O=C(c1ccccc1)c1cc2ccccc2o1` was tested, and the Potency was inconclusive: 28.2 µM [falling, single point]. `COc1ccc2c(CC(=O)N3CCc4ccccc43)coc2c1` was tested, and the Potency was inconclusive: 15.8 µM [falling, partial curve]. In the case of `N/C(=N\c1nc2ccccc2o1)NC(=O)c1cccc(Br)c1`, the “activity change, negative = inhibition” value is reported as inactive: -0.15%. `CCCCCCN1C=CC(=C2C(=O)c3ccccc3C2=O)C=C1` was tested, and the Potency was inconclusive: 15.8 µM [falling, partial curve]. With `O=C(Nc1nc2c(s1)CCCC2)c1cccs1` the Potency was inconclusive: 35.5 µM [falling, partial curve]. For `CCCCn1c(-c2ccc([N+](=O)[O-])cc2)n[nH]c1=S`, the Potency was inconclusive: 12.6 µM [falling, partial curve]. In the case of `Cc1ccc(-n2c(-c3cccc(C)c3)n[nH]c2=S)cc1`, the Potency is reported as active: 8.91 µM. `CCc1cc(-c2n[nH]c(=S)n2Cc2ccccc2)cs1` was tested, and the Potency was active: 10 µM. `CN1/C(=C/c2cc[n+](C)c3ccccc23)C=Cc2ccccc21` was tested, and the Potency was inconclusive: 22.4 µM [falling, single point]. `Cc1nc2ccccn2c1C(=O)NNS(=O)(=O)c1ccc(C(C)(C)C)cc1` was tested, and the “activity change, negative = inhibition” value was inactive: 0.0418%. `N#CC1(c2ccc(NC(=O)c3ccccc3)cc2)CCCC1` was tested, and the Potency was inconclusive: 25.1 µM [falling, single point]. With `CC(c1n[nH]c(=S)n1-c1ccc(F)cc1)N1CCCCC1` (stereo unspecified) the Potency was inconclusive: 12.6 µM [falling, partial curve]. In the case of `CC(=O)c1ccc(NC(=O)C2(c3ccccc3)CC2(Cl)Cl)cc1` (stereo unspecified), the “activity change, negative = inhibition” value is reported as inactive: -0.0083%. With `CCOC(=O)c1c(N2C(=O)C=CC2=O)sc(C)c1C` the Potency was inconclusive: 28.2 µM [falling, single point]. In the case of `N#Cc1c(/N=C/c2ccco2)sc2c1CCCCC2`, the Potency is reported as inconclusive: 14.1 µM [falling, partial curve]. For `Clc1ccc(-c2nc3n(n2)Cc2ccccc2-3)cc1`, the Potency was inconclusive: 10 µM [falling, partial curve]. In the case of `O=C(Nc1ccccn1)c1onc2c1CCCC2`, the Potency is reported as active: 11.2 µM. In the case of `COc1ccc2c(c1)-c1nc(/N=C/c3cccc(OC)c3O)sc1CC2`, the Potency is reported as inconclusive: 17.8 µM [falling, partial curve]. `N#CC(c1ccc(Cl)cc1)c1ccc2c(C(F)(F)F)cc(C(F)(F)F)nc2n1` (stereo unspecified) was tested, and the Potency was inconclusive: 25.1 µM [falling, single point]. In the case of `O=c1c(-c2ccc(Cl)cc2)coc2c(CN3CCCCC3)c(O)ccc12`, the “activity change, negative = inhibition” value is reported as inactive: -2.31%. For `O=C(N/N=C1\CCc2ccccc21)c1ccc(O)cc1`, the Potency was inconclusive: 25.1 µM [falling, single point]. `O=C(Nc1nc2ccccc2[nH]1)C1CCC1` was tested, and the Potency was inconclusive: 28.2 µM [falling, single point]. For `Cc1ccnc2nc(C(=O)Nc3ccc(N4CCOCC4)cc3)nn12`, the Potency was inconclusive: 28.2 µM [falling, single point]. For `Cc1ccc(-n2c(-c3c(-c4ccccc4)noc3C)n[nH]c2=S)cc1`, the Potency was active: 11.2 µM. With `CC(=O)OC1C2CCCC1C(N1CCCC1)CC2` (stereo unspecified) the Potency was “inactive”. For `O=C(Nc1cccc(O)c1)c1noc2c1CCc1ccccc1-2`, the Potency was inconclusive: 12.6 µM [falling, partial curve]. For `O=C(O)CCc1ccc(-c2ccc(F)cc2)n1NC(=O)c1ccco1`, the “activity change, negative = inhibition” value was inactive: 0.415%. In the case of `O=C(c1ccco1)N1CCn2c1nc1ccccc12`, the Potency is reported as inconclusive: 17.8 µM [falling, partial curve]. In the case of `CC(/C=N/NC(=O)c1ccncc1)=C\c1ccc(C(C)C)cc1`, the “activity change, negative = inhibition” value is reported as inactive: -0.0311%. With `O=C(COC(=O)c1cccs1)c1ccccc1` the Potency was active: 14.1 µM. In the case of `O=C(O)Cc1ccc(C(=O)c2cccs2)s1`, the Potency is reported as inconclusive: 25.1 µM [falling, single point]. With `Cc1ccsc1/C=C/c1ccc2cccc(O)c2n1` the Potency was inconclusive: 20 µM [falling, partial curve]. For `N/C(=N\OC(=O)c1ccc([N+](=O)[O-])cc1)c1ccccn1`, the Potency was active: 5.01 µM. With `Cc1ccc(C(=O)Nc2ccc(C(=O)N3CCCCC3)cc2)o1` the Potency was inconclusive: 12.6 µM [falling, partial curve]. `COc1ccc(C(=O)Nc2cc(OC)nc(OC)n2)cc1` was tested, and the Potency was inconclusive: 12.6 µM [falling, partial curve]. In the case of `Cc1ccc(NC(=O)c2c(Cl)nc3ccccn23)cc1`, the “activity change, negative = inhibition” value is reported as inactive: 0.247%. `Cc1[nH]n(-c2ccc([N+](=O)[O-])cc2)c(=O)c1C=NCCN1CCN(C(=O)c2ccccc2F)CC1` was tested, and the Potency was inconclusive: 14.1 µM [falling, partial curve]. With `O=Nc1ccc(NOC(=O)c2ccccc2Br)cc1` the Potency was inconclusive: 14.1 µM [falling, partial curve].
